25 molecules from PubChem BioAssay AID493208 (National Center for Advancing Translational Sciences (NCATS), 2011) can be followed below.

The campaign covered roughly 44,000 compounds. About 340 (0.77%) were called active. Inconclusive results (about 5%) are left out. The call rests on the fitted dose curve; in most records, active means well fitted inhibition curve with a large enough effect; inconclusive means small, poorly fitted or top-dose-only effect; inactive means flat fitted curve, though single readings scatter. Some of the results follow.
Potency means the concentration at half of the fitted maximal effect.

The nature of the test: Acumen qHTS Assay for Inhibitors of the mTORC1 Signaling Pathway in MEF (Tsc2-/-, p53-/-) Cells: Sytravon. Further: nearly all actives have a fitted effect of over 50% in size.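 On activity change, negative = inhibition: plate controls were DMSO for no effect and rapamycin for full effect.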 The following applies: phospho-rpS6 immunofluorescence/PI, 24 h; series mostly up to 38.3 µM; activity change, negative = inhibition: at the top concentration. The procedure, abridged: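 Read-out: phospho-S6 Alexa-488 intensity over PI intensity per well, scored as % active cells using thresholds from rapamycin (7.5 nM) and DMSO controls. Tsc2-/-, p53-/- MEFs exposed to compound for 24 h; PI cell count recorded as viability.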
A general note: qHTS replaces the single test concentration by a dilution series.
With `CN1CCN(CCNC(=O)c2cnn(-c3ccc(Cl)cc3)c2C2CCN(C(=O)OC(C)(C)C)CC2)CC1`, the “activity change, negative = inhibition” value is inactive: -2.73%.

As for `CCN(C(=O)C1CCN(S(=O)(=O)c2c(C)noc2/C=C/c2ccc(C)cc2)CC1)c1cccc(C)c1`, the “activity change, negative = inhibition” value is inactive: 3.32%.

`CCC(=O)N1CCc2cc(S(=O)(=O)NC(Cc3ccccc3)C(=O)O)ccc21` (stereo not given): the “activity change, negative = inhibition” value was inactive: -2.45%.

`COc1ccc(NC(=O)CSc2nc3ccccc3c(=O)n2CCC(=O)NC2CCCCC2)c(OC)c1`: the “activity change, negative = inhibition” value is inactive: -4.23%.

`O=C(CCCCCn1c(=O)c2sccc2n(Cc2ccccc2Cl)c1=O)NCc1ccc2c(c1)OCO2`: the “activity change, negative = inhibition” value is inactive: -10.1%.

Consider `Cc1ccc(S(=O)(=O)Nc2ccc3nc(-c4cccc(Cl)c4)oc3c2)cc1`, for which the “activity change, negative = inhibition” value was inactive: -8.95%.

As to `COc1ccc(CCNC(=O)C(C)n2nc(C)c3sc4ccccc4c3c2=O)c(OC)c1` (stereo not given), the Potency was active: 2930 nM.

Regarding `COc1cccc(-c2cn3c(n2)sc2cc(C(=O)NC4CCCCC4)ccc23)c1`, the “activity change, negative = inhibition” value was inactive: 2.48%.

Take `CCN(CCCNC(=O)c1cc2c(=O)n(C)c3ccccc3c2s1)c1ccccc1`: the “activity change, negative = inhibition” value was inactive: 2.79%.

With `CCc1ccccc1Nc1nn2c(=O)c3ccc(C(=O)NC(C)C)cc3nc2s1`, the “activity change, negative = inhibition” value is inactive: -11.3%.

With `COc1cc(NC(=O)C2CCN(c3cnccn3)CC2)cc(OC)c1`, the “activity change, negative = inhibition” value is inactive: -1.24%.

For `O=C(Cn1c(=O)n(Cc2ccco2)c(=O)c2oc3ccccc3c21)Nc1ccccc1`, the “activity change, negative = inhibition” value is inactive: -14.4%.

As for `COc1ccccc1N1CCN(C(=O)C2CCN(S(=O)(=O)c3cn(C)cn3)CC2)CC1`, the “activity change, negative = inhibition” value was inactive: 0%.

Consider `COc1ccccc1NC(=O)CN1C(=O)C(c2ccc(F)cc2)=NC12CCCCC2`, for which the “activity change, negative = inhibition” value was inactive: -11%.

With `CCOCCCNC(=O)c1ccc2c(=O)n(CCc3ccccc3)c(=O)[nH]c2c1`, the “activity change, negative = inhibition” value is inactive: 9.31%.

With `CCc1ccc2oc(-c3cc(NC(=O)c4cc(OC)c(OC)c(OC)c4)ccc3O)nc2c1`, the “activity change, negative = inhibition” value was inactive: -9.44%.

In the case of `CCCCc1ccc(NS(=O)(=O)c2cc3c4c(c2)CC(=O)N4CCC3)cc1`, the “activity change, negative = inhibition” value was inactive: -14%.

Take `COc1cccc(N2CCN(C(=O)c3cnn(-c4ccccc4Cl)c3C3CCN(C(=O)OC(C)(C)C)CC3)CC2)c1`: the “activity change, negative = inhibition” value is inactive: -0.963%.

As to `CC(=O)c1ccc(NC(=O)CSc2nc(=O)n(Cc3ccccn3)c3c2CCC3)cc1`, the “activity change, negative = inhibition” value is inactive: -0.994%.

In the case of `O=C(CCC1N=C2c3ccccc3N=C(SCc3ccc(Cl)cc3)N2C1=O)NCc1cccs1` (stereo not given), the “activity change, negative = inhibition” value is inactive: -6.43%.

In the case of `CCC(=O)N1CCc2cc(S(=O)(=O)NC(CC(C)C)C(=O)Nc3cccc(C)c3C)ccc21` (stereo not given), the “activity change, negative = inhibition” value is inactive: -23.1%.

As for `COc1ccccc1C(=O)n1nc(-c2ccccc2)nc1NCc1ccc(Cl)cc1`, the “activity change, negative = inhibition” value is inactive: -5.39%.

With `O=C(CCc1ccccc1)NC1CC(=O)N(c2cccc(F)c2)C1` (stereo not given), the “activity change, negative = inhibition” value is inactive: -1.42%.

Take `CN(C)c1ccc(CNC(=O)CN2C(=O)C3CCCCN3c3ccc(C(=O)N4CCCC4)cc32)cc1` (stereo not given): the “activity change, negative = inhibition” value was inactive: -13.6%.

Turning to `CCC(C)NC(=O)c1cc2n(n1)CCCN(Cc1ccc(C)cc1)C2=O` (stereo not given), the “activity change, negative = inhibition” value is inactive: 1.35%.
